This is an account of results in article PMC11880193 (Nature Communications, 2025).

Experiment [1] addresses T1, CODANIN-1 full-length (1–1227 a.a.), wild type (human, UniProt Q8IWY9 1-1227).
T1 sequence: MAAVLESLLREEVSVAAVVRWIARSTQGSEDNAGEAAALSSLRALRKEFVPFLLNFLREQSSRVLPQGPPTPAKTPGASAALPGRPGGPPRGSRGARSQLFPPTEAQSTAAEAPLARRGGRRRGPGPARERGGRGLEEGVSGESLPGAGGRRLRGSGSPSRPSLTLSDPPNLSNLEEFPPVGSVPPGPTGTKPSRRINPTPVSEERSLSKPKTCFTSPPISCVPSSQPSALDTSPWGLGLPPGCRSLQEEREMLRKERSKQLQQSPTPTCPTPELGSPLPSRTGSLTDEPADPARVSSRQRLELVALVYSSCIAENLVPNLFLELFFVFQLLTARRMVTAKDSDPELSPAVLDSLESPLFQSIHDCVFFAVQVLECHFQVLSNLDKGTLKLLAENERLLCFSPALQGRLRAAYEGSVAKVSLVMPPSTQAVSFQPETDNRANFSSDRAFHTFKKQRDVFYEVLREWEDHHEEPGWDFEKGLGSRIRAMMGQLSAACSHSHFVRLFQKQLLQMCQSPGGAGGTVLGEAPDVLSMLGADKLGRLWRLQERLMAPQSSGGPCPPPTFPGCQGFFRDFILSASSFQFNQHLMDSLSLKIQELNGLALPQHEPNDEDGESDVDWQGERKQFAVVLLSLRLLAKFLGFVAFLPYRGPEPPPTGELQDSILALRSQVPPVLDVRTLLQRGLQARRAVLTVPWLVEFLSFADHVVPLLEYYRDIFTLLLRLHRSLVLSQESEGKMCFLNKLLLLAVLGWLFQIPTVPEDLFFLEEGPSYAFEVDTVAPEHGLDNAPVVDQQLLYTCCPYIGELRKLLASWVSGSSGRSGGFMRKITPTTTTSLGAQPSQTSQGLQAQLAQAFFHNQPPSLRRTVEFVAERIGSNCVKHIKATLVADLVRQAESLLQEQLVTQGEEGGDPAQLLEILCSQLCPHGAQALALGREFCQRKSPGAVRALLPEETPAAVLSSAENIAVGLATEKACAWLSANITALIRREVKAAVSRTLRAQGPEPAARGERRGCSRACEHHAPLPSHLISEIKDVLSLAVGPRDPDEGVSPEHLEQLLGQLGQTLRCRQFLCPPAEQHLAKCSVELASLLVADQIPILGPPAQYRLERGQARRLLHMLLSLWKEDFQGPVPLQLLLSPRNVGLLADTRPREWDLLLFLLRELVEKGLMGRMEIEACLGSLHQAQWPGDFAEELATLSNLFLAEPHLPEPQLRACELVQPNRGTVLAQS
Put plainly: pull-down.

Experiment [2] concerns the target T2, full-length CODANIN-1 Mut4 (BD-Cmut_R825A/K826A) (human, UniProt Q8IWY9 1-1227, R825A | K826A).
T2 sequence: T1 sequence with R825A, K826A
Briefly: pull-down.

Where a chain is given by its changes, count along the chain named. Numbers in names are those of the source.

B1: GST-ASF1A_([…]) D54A (domain or fragment)
chain: not shown
For the molecule B1, in experiment [1], the binding result is “binds”.

B2: GST-ASF1A_([…]) E36A/D37A (domain or fragment)
chain: not shown
For B2, the binding result in experiment [1] is “binds”.

B3: GST-ASF1A_([…]) V94R (domain or fragment)
chain: not shown
B3: the binding result in experiment [1] and in experiment [2] was “binds” in each case.

B4: GST-ASF1A_([…]) D88A (domain or fragment)
chain: not shown
Turning to B4, in experiment [1], the binding result is “binds”.
